Where “and” joins values, the source holds several entries; their conditions need not be identical. Equal entries are not always repeated.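 Assay format: 96-well plates, 48-hour exposure. Here, GI50 denotes the concentration required for 50% inhibition of growth. TGI: concentration producing complete growth inhibition.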 Some results are limits rather than exact numbers.

The test system of this assay is NCI-H322M lung. The experiment in a line: inhibition of tumour cell growth, NCI panel, 48 h.
As to `COc1cc(CNc2cnc3cc(N)cc(N)c3n2)cc(OC)c1`, the GI50 is 24.7 µM and the TGI is above 100 µM.
For the compound `CC(C)CCC[C@@H](C)[C@H]1CC[C@H]2[C@@H]3CC=C4C[C@@H](C(C(=O)O)C(=O)O)CC[C@]4(C)[C@H]3CC[C@]12C`, the GI50 was 0.871 µM and the TGI came out at 24.7 µM.
As for `COC1=CC(c2ccc[nH]2)=N/C1=C\c1[nH]c(C)c(C(=O)OC(C)C)c1C`, the GI50 was 0.549 µM and the TGI was 6.86 µM.
`C=C1C(=O)C23CC1CCC2C12CO[C@@H]4OCC(C)(CC[C@@H]1OC3=O)C42` (some centres not stated) came in with a TGI of 29.1 µM.
The same measure, in the same setting: with `COC(=O)c1cc2c(n1S(=O)(=O)c1ccc(C)cc1)C(=O)C(=O)c1[nH]cc(C(=O)OCc3ccccc3)c1-2` the figure was 0.323 µM.
Consider `Cn1c2ccccc2c2c(Nc3ccccc3)c3ccccc3nc21`, for which the GI50 is 15.3 µM and the TGI came to 45.6 µM.
For `CCC(CO)Nc1nc2ccc(Cl)cc2c2ccccc12` (configuration not stated) the same measures were 3.88 µM and 18.3 µM.
`COc1ccc(C(=O)Cn2c(C(=O)c3ccccc3)nc(-c3ccc(OC)cc3)c2-c2ccc(OC)cc2)cc1`: the GI50 is above 100 µM and the TGI is above 100 µM.
In turn, `CCC1(O)CC2CC(=O)OC2C1O` (configuration not stated) gave a TGI above 100 µM.
For `O=C1OCC(O)=C1C(c1ccc(Cl)cc1)c1cc2c(cc1O)OCO2` (configuration not stated), the TGI is above 100 µM.
Still for that read-out and setting: the result for `COc1cc([C@@H]2c3cc4c(cc3[C@@H](Nc3ccc([N+](=O)[O-])cc3C(=O)c3ccccc3)[C@H]3COC(=O)[C@H]23)OCO4)cc(OC)c1OC` reads above 100 µM; that for `CN(C)CC[N+]1=Nc2cccc3cccc(c23)N1`, above 100 µM.
Compound `CC(C)C1/C(=N/O)CC(c2ccccc2)N(N=O)C1c1ccccc1` (configuration not stated) registered a TGI above 100 µM.
The same measure, in the same setting: the result for `CC1(C)N=C(/C(Cl)=[N+](/[O-])C(=O)c2ccc(F)cc2)C(C)(C)N1O` reads 45.2 µM; that for `CCCNC1=C2CC(C)CC(OC)[C@@H](O)[C@H](C)/C=C(\C)C(OC(N)=O)C(OC)/C=C\C=C(/C)C(=O)NC(=CC1=O)C2=O` (some centres not stated), 19 µM.
As to `CO[C@H](C(=O)[C@@H](O)[C@@H](C)O)[C@@H]1Cc2cc3cc(O[C@H]4C[C@@H](O[C@H]5C[C@@H](O)[C@H](O)C(C)O5)[C@H](O)C(C)O4)c(C)c(O)c3c(O)c2C(=O)[C@H]1O[C@H]1C[C@@H](O[C@H]2C[C@@H](O[C@H]3C[C@](C)(O)C(=O)C(C)O3)[C@@H](O)C(C)O2)[C@H](O)C(C)O1` (some centres not stated), the GI50 is 0.0919 µM and the TGI was above 15.2 µM.
In the case of `Cc1c2cnccc2c(C)c2c1c1ccccc1n2CCCN`, the GI50 is 0.0608 µM; the TGI was 0.88 µM and 0.47 µM.
`CC1=CC2C(O1)C1C(=O)C=CC(=O)C1=CC2[N+](=O)[O-]` (configuration not stated) registered a TGI above 87.9 µM.
`O=CN/C=C/c1cc(O)ccc1O` registered a TGI above 100 µM.
